Results reported in the supplement of paper PMC11417369.
This is one part of the list.

test system: PfSIP2 AP2 domain 1 (GST-tagged); assay: gcPBM binding intensity (ln(normalized median fluorescence intensity)); higher = stronger DNA binding
Outline: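 For binding intensity, the highest Masliner-normalised natural-log median intensity across replicate spots of either probe orientation was taken. Protein bound to the array was stained with Alexa488 anti-GST antibody and scanned at 488 nm. The protein, GST-tagged P. falciparum DNA-binding domains from E. coli at about 25 μg on average, had been applied for 1 h to an Agilent 4 × 180k array of primer-extended double-stranded 36-bp intergenic genomic probes and negative controls.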

Sequence	gcPBM binding intensity (ln)
TTGTTATTCCACCGTTGTACAGTTATATACATACAC [XGTACX_site8296]	7.31
TGTCATAAAACCGTTTGTACATATTAATAGACACCT [XGTACX_site4520]	6.99
TATAATAATAATGATAGTACGTATGAGTTCAAGAAA [XGTACX_site4918]	7.16
ATATTCCTTTAATATTGTACTATTTTTTTCCTTATA [XGTACX_site8659]	7.06
TCCATGCAGAAACACACACACAAAAAAAAATTCTTT [CACACA_site4099]	7.18
ATCTATGGGTAGTATACACACTGTATATTTAGGAAT [CACACA_site5569]	7.05
ATTCTATTCTCCTTCACACACAAAAATATTTCATCA [CACACA_site2360]	7.44
TTTTTGCAAAAAGAAATAATTTTATTTTAGTTCGGA [CACACA_negctrl_site1718]	6.76
TTACGAATAAAACAGTGTACATTGAATTTCTATGAG [XGTACX_site4771]	6.91
ATAATTGTTTAAAGGTGTACAATACATATATTTTAA [XGTACX_site3648]	6.91
TCATATATTATATATTGTACAAAATAATAAGTATTT [XGTACX_site3987]	7.02
ATGCAATTATATAGTAGTACAAATTTATAAATATAC [XGTACX_site4869]	7.34
ATTATACACCCGCGCACACACAACAAAAAAAAAAAA [CACACA_site5871]	8.04
ATATATATATATATGGGTACGTAAAAATATAATAAA [XGTACX_site4036]	9.26
GTTGTTATATAAAATTGTACATAAAAAACAAAATAT [XGTACX_site5313]	7.29
TAAAATTATTAATGAGTGCATTATAAAATCTATATA [GTGCAC_site9493]	8.79
TTTTCTTTCTTTCAAACACACATTAATTTTATTCAT [CACACA_site2734]	6.89
ATAAATGGCTATAGCATATTGTATATGTGATTATAA [CACACA_negctrl_site948]	6.96
TATATATATATATATTGTACTAAATCATTTAAATGA [XGTACX_site8016]	9.14
AAAAAACAAAAACACACGCACACAAAAAAAAAAAAA [CACACA_site802]	7.25
ATGAAAATATTTAAAAGTACAGAAATATAAAACCTT [XGTACX_site403]	6.92
CACAAATATACAAATACACACAAATATACACATATA [CACACA_site7176]	7.01

Sequence	gcPBM binding intensity (ln)
AAAATATTTATCATTTGTACTTAGATGTAAACTTGA [XGTACX_site1778]	6.75
TATAAAATATAAATAAATAAATAAATATATATATAT [TGCATGCA_negctrl_site448]	9.26
TATTTTATACACTTGCTAAAACATTAACACATATGT [CACACA_negctrl_site1818]	7.14
GTTGGTAGATTTATTTGTACATATGTATCATATTAT [XGTACX_site7135]	7.23
AAAAATTTATTTTGTTTTTTAAGATTTTTTTTTTTT [CACACA_negctrl_site1210]	6.73
ACATACATATATATACGTACATATATATTTATATAT [XGTACX_site5799]	7.56
ATTCTAAATATCAGTGCACACATTTCTACGCAAAGT [CACACA_site474]	9.9
AGCAAATACAAACACACACACACATATACATATATA [CACACA_site3497]	7.2
TAATTACAAAAACATACACACAAAAAAAAAAAAAAA [CACACA_site3782]	6.96
ATCTTATATATACGTTGTACTACAGGATATGTCATA [XGTACX_site5734]	7.13
TTCATTTACCCTTATTAACACACAAAATATAATACG [CACACA_site8821]	7.33
TGTATATTATAAGATAGTACATATATATAATATATA [XGTACX_site1297]	7.09
ATAAATATCATATATATACACACGTAATACATAATA [CACACA_site4001]	7.13
AAGGAGATAATTTATTGTACATATAATAAATGAACA [XGTACX_site6252]	7.09
TCTTACAAAAAAAAAAAAAAATAAAATAAAATATAT [CACACA_negctrl_site1575]	6.7
TTAATATTATGTTAAAGTACTTTATATATATATAAT [XGTACX_site2646]	7.05
ATATTAAGAATATATACACACATAAGTATTGTATAT [CACACA_site6110]	6.83
TATTCGTGCAATAGTAGTACACTTATAAATTATTCT [XGTACX_site4899]	7.69
ATAAAATAAAATAAATGTACACGAAAAAAAATATTT [XGTACX_site3747]	7.25
TTACTTGTTTATTTTATTTTTTTTTTTTTTTTGTTA [TGCATGCA_negctrl_site266]	6.78
AGTGAGAAATACATAATAATACATTATGTGCATATT [XGTACX_negctrl_site247]	7.23
GTACACATATATATATATATATATATATATATATTA [CACACA_negctrl_site1580]	7.86

Sequence	gcPBM binding intensity (ln)
AAGAATATTTTTTTCTGTACATATAATTTATATACG [XGTACX_site5801]	6.93
AACGAAAGAAAAAAAGCACACACAGTTTTGAGCAAT [CACACA_site8658]	6.66
ACCATGATAAATGTATTAAATGTATCATAACCTATG [CACACA_negctrl_site513]	6.82
ATCCGTGTCTGAAATACACACATGATAATGTGAATG [CACACA_site8210]	6.91
ATGGAAACAAGCATCACACATATAAATATATATATA [CACACA_site4979]	9.04
CAAACATTTTAATGTACACACACCCACAGACAAACA [CACACA_site5522]	7.51
TTCTTTTTGAAATATTAACACACATTTTGTTAATTA [CACACA_site9337]	6.96
AGGAATTTATAAAATTGTACTTTTAATTACCTACAG [XGTACX_site3153]	7.03
AATTTTCTACAAATGTGTACTAAATAAAATATTACT [XGTACX_site7175]	7.1
TTTTTCTGTTCTTTTTGTACTTAAATATATTTATTT [XGTACX_site5658]	7.01
ACAATGAGGATATATACACACATACATTAAAAAAAT [CACACA_site6955]	7.07
ATGTGTGTATTTTATAGTACAGTTACAAGCATTTTT [XGTACX_site6351]	7.34
AAAAAAGAAAAAAGGACACACATAAATATACACCCG [CACACA_site5590]	7
AGAATATAATTTTTATGTACATATATTAAATATATT [XGTACX_site8521]	6.95
CACAAAAATAAACACACACACATATATATATATATA [CACACA_site4704]	9.37
TCATAAAATATGTTTTGTACATAAAATTAAACAAGT [XGTACX_site1763]	6.97
AAATAAGAGAAAATATGTACATACATATATTTATAT [XGTACX_site6210]	6.99
AAATATAAATAAAGATGTACATTATCTATATGTGAT [XGTACX_site4863]	7.01
AATACGTTTATATATTGTACGTTATATATATATATA [XGTACX_site7452]	9.42
TAAGTTCGAATTACTTAAATATTGATTTTTTTAAAA [TGCATGCA_negctrl_site114]	6.55
AAGAAAAGCAAACAAGTGCATAATAACAAAAAAAAT [GTGCAC_site9725]	8.52
TATTTATTTATAAACACACAAATATTTTTATTTATA [CACACA_site6889]	6.8

Sequence	gcPBM binding intensity (ln)
TTTTTTTTTTTTAGAGTACACACTTTTTTACATTTA [CACACA_site3836]	6.96
GTTGAAAATACAGAACGTACACGTTTGCCATATTGT [XGTACX_site2254]	6.87
TATGAAATGCTCCAATCACACATGAATGTAATATAT [CACACA_site5458]	6.74
ATATGATTTATAAAGTGTACCTTATTATAAGAAACA [XGTACX_site7914]	7.1
ACTTTTATTATTTATATACACACTTGCTGAAATGTT [CACACA_site3637]	7.46
AGTTATAAAATATTTGCATGTAAATATATTATCTAT [TGCATGCA_site1015]	6.87
ATATTTATATTTATGTGTACATATGAAATAATTATT [XGTACX_site7765]	7.26
TAATATATTATGAGGGGTACATAATATGGTTTATTG [XGTACX_site8301]	7.12
CTAAGAAGTATTTACACACCAACAAGGCGAAAAAAA [CACACA_site2945]	6.92
ATATCTTATATCTTCACACATACACAATAAATACAT [CACACA_site5028]	7.24
AATGTATTCTCTCATGCACACTTTCTTTAAGGGACC [CACACA_site5245]	8.45
TAAGATGATATAGACTGTACATATTGAACTTACAAG [XGTACX_site4290]	6.91
ATTCATATTAAATATATATATATATATATATATATA [CACACA_negctrl_site484]	9.58
TAATATATTAATTTTTGTACTTAATTATATGTTTTT [XGTACX_site5654]	6.75
GTTTTTAAATATGCCATACACACTACTATATAATAA [CACACA_site1927]	7.16
GAAGAAAAAGAAAAAAGTACATATATTATATTATAA [XGTACX_site7870]	6.73
TTCTAAATTAATAATACACACTTGCTAAAATCATTA [CACACA_site5733]	6.75
TTTATTTTATCATTTGCACACGCACCCCCACATAAA [CACACA_site8007]	11.5
ATTCTCCATGTTTGATGTACTCATATGACGACGGAG [XGTACX_site4923]	7.21
ATATAAATAACGTGTACACACATATGTATTTATATA [CACACA_site6520]	7.4
TTCTTATATTGTACAGTACACACCTTTATAATGTTA [CACACA_site7953]	7.49
AATATTTCTATATGAACATGCAATGTATCTTTTTAT [TGCATGCA_site738]	6.77
